Laboratory results: PubChem BioAssay AID894 (National Center for Advancing Translational Sciences (NCATS), 2007)
Values joined by “and” are separate entries in the source; they are usually repeats but may differ in a detail not shown here. Equal entries are not always repeated. The whole screen tested about 150,000 compounds, of which about 6,500 (4.3%) were called active. Inconclusive results, whose numbers are uncertain, are shown with a selection of clear calls. The call rests on the fitted dose curve; in most records, active means well fitted inhibition curve with a large enough effect (not every such curve was filed as active); inconclusive means small, poorly fitted or top-dose-only effect, or another doubt; inactive means no such curve, though single readings can be large or run the other way. Potencies of inconclusive entries are doubtful fits and often do not repeat. Where a structure was tested more than once in an assay, its records may differ in their call.

Each compound was assayed against 15-hydroxyprostaglandin dehydrogenase [NAD(+)] (Homo sapiens) (UniProt P15428) (assay: qHTS Assay for Inhibitors of HPGD (15-Hydroxyprostaglandin Dehydrogenase)). Conditions: purified HPGD, NADH fluorescence kinetic, PGE2 substrate; activity change, negative = inhibition: hits give low values.
In short: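 20 nM HPGD preincubated 15 min at room temperature with compound in 50 mM Tris-HCl pH 8, 0.01% Tween 20. Started with 1 mM NAD+ and 30 uM prostaglandin E2; NADH fluorescence (360/450 nm) read 5 times over 30-s intervals, last minus first.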
On the % scale 0 is the no-effect control and ±100 the full control effect; potency means the concentration at half of the fitted maximal effect; tags describe the fitted curve by direction and shape.

Chain of UniProt P15428 (P15428 whole entry, looked up): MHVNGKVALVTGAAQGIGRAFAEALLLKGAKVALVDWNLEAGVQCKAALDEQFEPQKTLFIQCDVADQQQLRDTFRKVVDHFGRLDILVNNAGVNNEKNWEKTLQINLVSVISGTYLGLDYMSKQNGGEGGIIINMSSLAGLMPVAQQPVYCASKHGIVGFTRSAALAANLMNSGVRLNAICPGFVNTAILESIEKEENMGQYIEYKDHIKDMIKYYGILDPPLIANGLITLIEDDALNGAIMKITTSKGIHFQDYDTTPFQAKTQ

Potency, active:
COc1ccc2c(c1)c1nnc(SCC(=O)N3CCCCC3C)nc1n2C (stereo not drawn) 15.8 µM
COCCNS(=O)(=O)c1ccc(-c2ccc(S(=O)(=O)NCCOC)cc2)cc1 11.2 µM
CN1CCN(C(=O)c2ccc(C3SCC(=O)N3Cc3ccco3)cc2)CC1 (stereo not drawn) 12.6 µM
COc1ccc(/C=C/C(=O)NCCSCc2ccco2)cc1 14.1 µM
CCOC(=O)c1cnc(SC)nc1Sc1ccccc1Cl 15.8 µM
COc1c(O)cc2oc3cc(O)c(CC=C(C)C)c(O)c3c(=O)c2c1CC=C(C)C 20 µM and 28.2 µM
CSc1nsc(/C=C/Nc2ccc(C)cc2)c1C#N 14.1 µM
Cn1c(=O)c([N+](=O)[O-])c(NCC(O)c2ccccc2)c2ccccc21 (stereo not drawn) 25.1 µM
O=C(O)CCCCCNc1ccc2nsnc2c1[N+](=O)[O-] 28.2 µM
CC(C)(C)CC(=O)NC(=S)Nc1ccccc1C(F)(F)F 25.1 µM
S=c1[nH]nc(-c2cccnc2)n1/N=C/C(Cl)=C\c1ccccc1 1.58 µM
Cc1ccccc1CSc1nc2ccccc2c(=O)[nH]1 1.58 µM
COc1ccc(CC(=O)N2CC(C)CC(C)C2)cc1 (stereo not drawn) 28.2 µM
CCn1c(Cc2cccs2)nnc1SCC(=O)c1ccc(C)cc1 15.8 µM
CCOC(=O)C1(C)/C(=N/Nc2cccc(Cl)c2)C(=O)C(=O)N1c1ccccc1 (stereo not drawn) 31.6 µM

Potency, inconclusive:
CC(=O)N1CCC2(CC1)CC(=O)c1cc(OCC(=O)NCc3ccc(C)cc3)ccc1O2 28.2 µM [inhibitor, partial curve]
CCCOc1cccc(NC(=O)c2c(-c3ccccc3)noc2C)c1 31.6 µM [inhibitor, partial curve]
O=C(CSc1nnc2ccccn12)N1CCc2ccccc2C1 6.31 µM [inhibitor, full curve]
O=C(Nc1ccccc1F)c1cc2nc(C(F)F)cc(C(F)F)n2n1 25.1 µM [inhibitor, partial curve]
CC(C)CNC(=O)COC(=O)c1cc(Cl)cc(Cl)c1N 8.91 µM [inhibitor, partial curve]
c1ccc(-n2nnnc2Sc2ncnc3sc4c(c23)CCCC4)cc1 31.6 µM [inhibitor, single point]
C=CCSc1nc(C)c(CC=C)c(=O)[nH]1 6.31 µM [inhibitor, full curve, poor fit]
COc1ccc(-c2csc(Nc3ccc(S(=O)(=O)Nc4cc(OC)nc(OC)n4)cc3)n2)cc1 25.1 µM [inhibitor, partial curve]
CC(C)CNc1oc(-c2ccc(F)cc2)nc1C#N 31.6 µM [inhibitor, partial curve]
CCC1CCCCN1C(=O)CCCOc1ccccc1 (stereo not drawn) 20 µM [inhibitor, partial curve]
Cc1cc(NC(=O)c2cc(-c3ccc(C)c(C)c3)nc3ccccc23)no1 28.2 µM [inhibitor, single point]
CCCCC(=O)Nc1nc(C)c(-c2csc(Nc3ccc(Cl)cc3)n2)s1 39.8 µM [inhibitor, partial curve]
COc1cc2c(cc1OC)C1=C(C#N)COCN1CC2 31.6 µM [inhibitor, partial curve]
O=c1[nH]c2ccccc2c(=O)n1CCCO 31.6 µM [inhibitor, partial curve]
CC1CCCCN1CC(=O)Nc1ccc(Oc2ccccc2)cc1 (stereo not drawn) 35.5 µM [inhibitor, single point]
Cc1nc(N2CCOCC2)c2nc(-c3ccccc3)n(CCN3CCOCC3)c2n1 2.51 µM [inhibitor, full curve]
Cc1c(OCc2ccc(C(=O)O)o2)ccc2c3c(c(=O)oc12)CCC3 31.6 µM [inhibitor, partial curve]
CCOc1cc(C2C(C(=O)OC)=CN(C3CCCC3)C=C2C(=O)OC)cc(Br)c1O 31.6 µM [inhibitor, partial curve]
COC(=O)C1=CN(CCCN2CCCC2=O)C=C(C(=O)OC)C1c1ccccc1C(F)(F)F 31.6 µM [inhibitor, partial curve]
CCCCOC(=O)Nc1ccc2c(C)cc(=O)oc2c1 15.8 µM [inhibitor, partial curve]
COc1ccc(NC(=O)C2CCN(c3nc(C)cc(C)n3)CC2)cc1 31.6 µM [inhibitor, single point]
CN(C)c1ccc(-c2ccc3ncnc(N4CCNCC4)c3c2)cc1 31.6 µM [inhibitor, single point]
COc1nc(-c2ccccc2)ccc1-c1noc(-c2ccc(F)cc2)n1 3.16 µM [inhibitor, full curve]
c1ccc2sc(SCc3ccc(-c4nnco4)cc3)nc2c1 31.6 µM [inhibitor, partial curve]
COc1cc(/C=C(/C#N)c2ccc(F)cc2)ccc1OCc1ccc(C(=O)O)o1 28.2 µM [inhibitor, single point]
N#Cc1c(C(F)(F)F)cc(-c2cccc(Cl)c2)[nH]c1=O 20 µM [inhibitor, partial curve]
Cc1cccc(NC(=O)c2cnc3scc(C)n3c2=O)c1 31.6 µM [inhibitor, single point]
CCOC(=O)c1cnc(-n2cc(C)cn2)nc1NCc1ccc2c(c1)OCO2 28.2 µM [inhibitor, single point]
CCOC(=O)Nc1cc2c(cc1C(C)=O)OCO2 35.5 µM [inhibitor, partial curve]
CCCc1nnc(NC(=O)c2c(O)c3cccc4c3n(c2=O)CC4)s1 3.98 µM [inhibitor, full curve, poor fit]
O=c1c(-c2nc3ccccc3s2)cccn1Cc1ccc(Cl)cc1 15.8 µM [inhibitor, partial curve]
Cc1cccc(Cn2c(C(=O)OC(C)C)cc3c2ccn3C)c1 22.4 µM [inhibitor, partial curve]
O=C(CSc1nnc2c(n1)[nH]c1ccccc12)Nc1ccc2c(c1)OCO2 6.31 µM [inhibitor, partial curve]
O=C(Nc1cccc(S(=O)(=O)N2CCCCC2)c1)c1ccccc1NS(=O)(=O)c1ccc(F)cc1 14.1 µM [inhibitor, partial curve]
N/C(=N\OC(=O)c1cccc2ccccc12)c1ccc(Br)cc1 12.6 µM [inhibitor, partial curve]
CSc1cccc(NS(=O)(=O)c2cccs2)c1 39.8 µM [inhibitor, single point]
CCSc1ncnc2sc(C)c(C)c12 31.6 µM [inhibitor, single point]
O=C(COC(=O)c1cccc2ccccc12)Nc1ncc(C(F)(F)F)cc1Cl 25.1 µM [inhibitor, partial curve]
O=C(O)c1cc2c([nH]c1=O)CCCC2 35.5 µM [inhibitor, partial curve]

Activity change, negative = inhibition, inactive:
CN(C)S(=O)(=O)Oc1cccc(C(=O)Nc2ccccc2Cl)c1 -27.7%
CCOC(=O)c1nnn(-c2nonc2N)c1CSc1ccc(C)cc1 -23.1%
COc1ccc(NC2=CC(=O)CC(c3ccccc3)C2)c(OC)c1 (stereo not drawn) -3.39%
CC1CCCN(C(=O)c2ccncc2)C1 (stereo not drawn) -29.7%
CCOC(=O)C1(O)Oc2cc(OC)cc(OC)c2C(=O)C1c1ccccc1 (stereo not drawn) -18%
O=C(Nc1c2c(nc3ccccc13)CCCC2)c1ccccc1F -4.1%
CCOC(=O)c1c(-c2ccc(C)cc2)csc1NC(=O)c1cc2ccccc2oc1=O -20.1%
Cc1ccc2nc(-c3ccccc3)nc(SC(C)C(=O)NCc3cccs3)c2c1 (stereo not drawn) -10.7%
COc1ccc(OCCSc2nnc(CC(=O)Nc3cccc(Cl)c3Cl)n2C)cc1 -14.8%
N#C/C(=C\c1ccc(-c2cccc(Cl)c2)o1)C(=O)Nc1cccc2cccnc12 -5.6%
Cc1[nH]nc2c1C(c1ccoc1)C(C#N)=C(N)O2 (stereo not drawn) 0.292%
Cc1cc(NC(=O)CSc2ccc3c(c2)OCCO3)no1 -14.6%
CC(=O)OC1CC(OC(C)=O)[C@]2(C)C(CC(OC(C)=O)[C@@]3(C)C4=CC(=O)OC(c5ccoc5)[C@]4(C)CCC32)C1(C)C (stereo partly drawn) 18%
CCN(CC)S(=O)(=O)c1ccc(C)c(NC(=O)COC(=O)c2ccc(C)c(S(=O)(=O)N3CCOCC3)c2)c1 -4.5%
O=C(CSc1nnc(CNc2ccc(F)cc2)o1)N1c2ccccc2Sc2ccccc21 -5.88%
C=CCn1c(SCC(=O)c2[nH]c(C)c(C(=O)OCC)c2C)nc2scc(-c3ccc(OC)c(OC)c3)c2c1=O -8.41%
Cc1ccc(-c2c3c(nc4sc(C(N)=O)c(N)c24)CCC3)cc1 -21.9%
CCN(c1cccc(C)c1)S(=O)(=O)c1ccc2c(c1)CCN2C(C)=O -12.7%
CCCc1nnc(SCC(=O)N2CCOCC2)n1C -0.667%
